# Source: the supplement of paper PMC8728848
# This is one part of the list.
# Key:
# Test in all cases: glycan array binding signal (z-score within array); higher = stronger binding
# Conditions in all cases: glycan notation: IUPAC condensed, linker removed
# [1] = target: Man(a1-2)Man(a1-3)Man
# Procedure, shortened: (§1)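 From the Consortium for Functional Glycomics database, 3228 arrays were curated, keeping only those whose protein sequence was available. Binding is given as a within-array Z-score averaged across arrays sharing a protein sequence and across linkers. Negative Z-scores can be read as non-binding.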
# [2] = target: Man(a1-2)Man(a1-3)[Man(a1-2)Man(a1-6)]Man
# Procedure, shortened: as §1
# [3] = target: Man(a1-2)Man(a1-3)[Man(a1-2)Man(a1-6)]Man(a1-6)[Man(a1-2)Man(a1-2)Man(a1-3)]Man
# Procedure, shortened: as §1
# [4] = target: Man(a1-2)Man(a1-3)[Man(a1-2)Man(a1-6)]Man(a1-6)[Man(a1-2)Man(a1-2)Man(a1-3)]Man(b1-4)GlcNAc(b1-4)GlcNAc
# Procedure, shortened: as §1
# [5] = target: Man(a1-2)Man(a1-3)[Man(a1-6)]Man(a1-6)[Man(a1-2)Man(a1-3)]Man(b1-4)GlcNAc(b1-4)GlcNAc
# Procedure, shortened: as §1
# [6] = target: Man(a1-2)Man(a1-6)[Man(a1-3)]Man(a1-6)[Man(a1-2)Man(a1-2)Man(a1-3)]Man
# Procedure, shortened: as §1
# [7] = target: Man(a1-2)Man(a1-6)[Man(a1-3)]Man(a1-6)[Man(a1-2)Man(a1-2)Man(a1-3)]Man(b1-4)GlcNAc(b1-4)GlcNAc
# Procedure, shortened: as §1
# [8] = target: Man(a1-3)[Man(a1-6)]Man
# Procedure, shortened: as §1
# [9] = target: Man(a1-3)[Man(a1-6)]Man(a1-6)[Man(a1-2)Man(a1-3)]Man(b1-4)GlcNAc(b1-4)GlcNAc
# Procedure, shortened: as §1
# [10] = target: Man(a1-3)[Man(a1-6)]Man(a1-6)[Man(a1-3)]Man
# Procedure, shortened: as §1
# [11] = target: Man(a1-3)[Man(a1-6)]Man(a1-6)[Man(a1-3)]Man(b1-4)GlcNAc(b1-4)GlcNAc
# Procedure, shortened: as §1
# [12] = target: Man(a1-3)[Man(a1-6)]Man(b1-4)GlcNAc(b1-4)GlcNAc
# Procedure, shortened: as §1
# [13] = target: Man(a1-3)[Man(a1-6)]Man(b1-4)GlcNAc(b1-4)[Fuc(a1-6)]GlcNAc
# Procedure, shortened: as §1
# [14] = target: Man(a1-6)Man
# Procedure, shortened: as §1
# [15] = target: Man(b1-4)GlcNAc
# Procedure, shortened: as §1
# [16] = target: MurNAc(b1-4)GlcNAc
# Procedure, shortened: as §1
# [17] = target: Neu5Ac(a2-3)Gal
# Procedure, shortened: as §1
# [18] = target: Neu5Ac(a2-3)Gal(b1-3)GalNAc
# Procedure, shortened: as §1
# [19] = target: Neu5Ac(a2-3)Gal(b1-3)GalNAc(b1-3)Gal(a1-4)Gal(b1-4)Glc
# Procedure, shortened: as §1
# [20] = target: Neu5Ac(a2-3)Gal(b1-3)GalNAc(b1-3)Gal(b1-4)GlcNAc
# Procedure, shortened: as §1
# [21] = target: Neu5Ac(a2-3)Gal(b1-3)GalNAc(b1-4)[Neu5Ac(a2-3)]Gal(b1-4)Glc
# Procedure, shortened: as §1
# [22] = target: Neu5Ac(a2-3)Gal(b1-3)GalNAc(b1-4)[Neu5Ac(a2-8)Neu5Ac(a2-3)]Gal(b1-4)Glc
# Procedure, shortened: as §1
# [23] = target: Neu5Ac(a2-3)Gal(b1-3)GalNAc6S
# Procedure, shortened: as §1
# [24] = target: Neu5Ac(a2-3)Gal(b1-3)GlcNAc
# Procedure, shortened: as §1
# [25] = target: Neu5Ac(a2-3)Gal(b1-3)GlcNAc(b1-2)Man
# Procedure, shortened: as §1
# [26] = target: Neu5Ac(a2-3)Gal(b1-3)GlcNAc(b1-2)Man(a1-3)[GlcNAc(b1-4)][Neu5Ac(a2-3)Gal(b1-3)GlcNAc(b1-2)Man(a1-6)]Man(b1-4)GlcNAc(b1-4)GlcNAc
# Procedure, shortened: as §1
# [27] = target: Neu5Ac(a2-3)Gal(b1-3)GlcNAc(b1-2)Man(a1-3)[Neu5Ac(a2-3)Gal(b1-3)GlcNAc(b1-2)Man(a1-6)]Man(b1-4)GlcNAc(b1-4)GlcNAc
# Procedure, shortened: as §1
# [28] = target: Neu5Ac(a2-3)Gal(b1-3)GlcNAc(b1-3)Gal(b1-3)GlcNAc
# Procedure, shortened: as §1
# [29] = target: Neu5Ac(a2-3)Gal(b1-3)GlcNAc(b1-3)Gal(b1-4)GlcNAc
# Procedure, shortened: as §1
# [30] = target: Neu5Ac(a2-3)Gal(b1-3)GlcNAc(b1-3)GalNAc
# Procedure, shortened: as §1
# [31] = target: Neu5Ac(a2-3)Gal(b1-3)GlcNAc(b1-4)Gal(b1-4)Glc
# Procedure, shortened: as §1
# [32] = target: Neu5Ac(a2-3)Gal(b1-3)GlcNAc(b1-6)GalNAc
# Procedure, shortened: as §1
# [33] = target: Neu5Ac(a2-3)Gal(b1-3)GlcNAc6S
# Procedure, shortened: as §1
# [34] = target: Neu5Ac(a2-3)Gal(b1-3)[Fuc(a1-4)]GlcNAc
# Procedure, shortened: as §1
# [35] = target: Neu5Ac(a2-3)Gal(b1-3)[Fuc(a1-4)]GlcNAc(b1-3)Gal(b1-3)[Fuc(a1-4)]GlcNAc
# Procedure, shortened: as §1
# [36] = target: Neu5Ac(a2-3)Gal(b1-3)[Fuc(a1-4)]GlcNAc(b1-3)Gal(b1-4)[Fuc(a1-3)]GlcNAc
# Procedure, shortened: as §1
# [37] = target: Neu5Ac(a2-3)Gal(b1-3)[GlcNAc(b1-6)]GalNAc
# Procedure, shortened: as §1
# [38] = target: Neu5Ac(a2-3)Gal(b1-3)[Neu5Ac(a2-3)Gal(b1-4)]GlcNAc
# Procedure, shortened: as §1
binder,measurement,setting,value
DBA (Dolichos biflorus) (protein) ANIQSFSFKNFNSPSFILQGDATVSSGKLQLTKVKENGFPLRFPSGRAFYSSPIQIYDKFTGAVASWATSFTVKISAPSKASFADGIAFALVPVGSEPRRNGGYLGVFDSDVYNNSAQTVAVEFDTLSNSGWDPSMKHIGIDVNSIKSIATVSWDLANGENAEILITYNAATSLLVVSLVHPSRRTSYILSERVDITNELPEYVGVGFSATTGLSEGYIETHDVLSWSFASRLPDDSTAEPLDLARYLVRNVL,glycan array binding signal (z-score),[1],-0.126
same,glycan array binding signal (z-score),[2],-0.141
same,glycan array binding signal (z-score),[3],-0.152
same,glycan array binding signal (z-score),[4],-0.098
same,glycan array binding signal (z-score),[5],-0.157
same,glycan array binding signal (z-score),[6],-0.062
same,glycan array binding signal (z-score),[7],-0.124
same,glycan array binding signal (z-score),[8],-0.123
same,glycan array binding signal (z-score),[9],-0.047
same,glycan array binding signal (z-score),[10],-0.1
same,glycan array binding signal (z-score),[11],-0.124
same,glycan array binding signal (z-score),[12],-0.13
same,glycan array binding signal (z-score),[13],-0.121
same,glycan array binding signal (z-score),[14],-0.083
same,glycan array binding signal (z-score),[15],-0.107
same,glycan array binding signal (z-score),[16],-0.119
same,glycan array binding signal (z-score),[17],-0.119
same,glycan array binding signal (z-score),[18],-0.158
same,glycan array binding signal (z-score),[19],-0.077
same,glycan array binding signal (z-score),[20],-0.203
same,glycan array binding signal (z-score),[21],-0.14
same,glycan array binding signal (z-score),[22],-0.103
same,glycan array binding signal (z-score),[23],-0.139
same,glycan array binding signal (z-score),[24],-0.13
same,glycan array binding signal (z-score),[25],0.101
same,glycan array binding signal (z-score),[26],-0.172
same,glycan array binding signal (z-score),[27],-0.139
same,glycan array binding signal (z-score),[28],-0.12
same,glycan array binding signal (z-score),[29],-0.154
same,glycan array binding signal (z-score),[30],-0.113
same,glycan array binding signal (z-score),[31],-0.108
same,glycan array binding signal (z-score),[32],-0.111
same,glycan array binding signal (z-score),[33],-0.064
same,glycan array binding signal (z-score),[34],-0.115
same,glycan array binding signal (z-score),[35],-0.063
same,glycan array binding signal (z-score),[36],-0.126
same,glycan array binding signal (z-score),[37],-0.093
same,glycan array binding signal (z-score),[38],-0.188
